Usually Kd stands for a measure of binding affinity in units of concentration.

The target of the assay is T1, recombinant cynomolgus monkey CDCP1 extracellular domain (cynomolgus monkey, UniProt A0A2K5VLA8 30-663).
T1 construct: range 30-663; also called cyno CDCP1 ECD; cynomolgus monkey CDCP1-ECD
Nature of the assay: SPR (Biacore T200), antibody captured on anti-human IgG, CDCP1-ECD injected; experiment 2. The protocol:
Specifically, the binding kinetics of anti-CDCP1 antibodies against recombinant human, cynomologus monkey and mouse CDCP1-ECD were determined using surface plasmon resonance (SPR) and a Biacore T200 instrument (GE Healthcare). An anti-human IgG antibody was amine coupled onto a CM5 carboxymethylated dextran sensor chip surface (GE Healthcare), using the manufacturer's recommendations, to densities of approximately 10,000-13,000 response units (RU). Each anti-CDCP1 antibody was diluted to 0.5 μg/mL in 10 mM HEPES pH 7.4, 0.15 M NaCl, 3 mM EDTA, 0.05% P-20 (HBS-EP+) and captured for about 20-23 seconds at a flow rate of 10 μL/min. […] The sensorchip surface was regenerated with three 30 second pulses of 3M MgCl₂ at a flow rate of 50 μL/minute. All injections used HBS-EP+ as both the running and sample buffer and were performed at 25° C. with a data collection rate of 1 Hz. Sensorgrams were double referenced by using both a control surface and buffer injections. Rate constants were determined by fitting the data to a 1:1 model with Biacore T200 evaluation software v3.0 and the equation KD=kd/kₐ.
In general terms: In SPR one partner is held on a chip, and binding of the other changes the refractive index at the surface.

T1 sequence (A0A2K5VLA8 entry or part of it): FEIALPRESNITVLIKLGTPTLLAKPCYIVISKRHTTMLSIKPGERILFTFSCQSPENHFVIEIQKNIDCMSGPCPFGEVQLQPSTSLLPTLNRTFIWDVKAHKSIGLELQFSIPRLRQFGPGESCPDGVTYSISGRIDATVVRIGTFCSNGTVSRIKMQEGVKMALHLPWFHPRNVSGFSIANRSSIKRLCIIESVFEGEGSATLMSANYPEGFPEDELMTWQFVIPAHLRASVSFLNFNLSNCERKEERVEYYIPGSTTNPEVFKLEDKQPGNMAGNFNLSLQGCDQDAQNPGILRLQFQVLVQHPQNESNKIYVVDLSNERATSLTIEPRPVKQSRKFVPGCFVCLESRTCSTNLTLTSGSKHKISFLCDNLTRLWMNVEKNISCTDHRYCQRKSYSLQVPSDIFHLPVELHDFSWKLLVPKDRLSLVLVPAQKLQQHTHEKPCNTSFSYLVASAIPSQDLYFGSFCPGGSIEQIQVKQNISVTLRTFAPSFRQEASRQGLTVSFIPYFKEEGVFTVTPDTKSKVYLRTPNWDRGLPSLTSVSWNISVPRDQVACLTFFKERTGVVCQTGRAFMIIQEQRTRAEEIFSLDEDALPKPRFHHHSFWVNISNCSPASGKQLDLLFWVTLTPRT

B1: CP13E10-54HC-89LCv1 (antibody, human IgG1, kappa)
heavy: EVQLVQSGAEVKKPGASVKVSCKASGYTFTSYYMHWVRQAPGQGLEWMGIINPSGGSTSYAQKFQGRVTMTRDTSTSTVYMELSSLRSEDTAVYYCARDGELRHFDHLLDYHYYMDVWGQGTTVTVSS[left out - human IgG1 constant region]
light: EIVMTQSPATLSLSPGERATLSCRASQSVGSYLAWYQQKPGQAPRLLIYDASNRATGIPARFSGSGSGTDFTLTISSLQPEDFAVYYCQQRAQEFTFGQGTKVEIKRTVAAPSVFIFPPSDEQLKSGTASVVCLLNNFYPREAKVQWKVDNALQSGNSQESVTEQDSKDSTYSLSSTLTLSKADYEKHKVYACEVTHQGLSSPVTKSFNRGEC
notes: Human IgG1, kappa; also called germlined CP13E10-54HC-89LCv1
Consider B1, for which the Kd is 0.0695 µM.

These data come from US20260139067A1 (BETH ISRAEL DEACONESS MEDICAL CENTER, published 2026).
